# Measurements taken from PubChem BioAssay AID485281 (National Center for Advancing Translational Sciences (NCATS), 2010).
# Among all 350,000 compounds or so, about 260 (0.074%) were called active. Inconclusive results, whose numbers are uncertain, are shown with a selection of clear calls. Calls follow the shape of the dose curve; as a rule, active = well fitted inhibition curve with a large enough effect; inconclusive = small, poorly fitted or top-dose-only effect; inactive = no such curve, though single readings can be large or run the other way. Where the call is inconclusive, the potency comes from a doubtful curve fit.
# Target: Ferritin light chain (Equus caballus) (UniProt P02791)
# Test: qHTS Assay for Identification of Novel General Anesthetics; also: nearly all actives have a fitted effect of over 20% in size
# Settings: apoferritin/1-aminoanthracene competitive binding, fluorescence; series mostly up to 77.5 µM
# In short: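 In PBS, apoferritin at 10 uM is loaded with 1-AMA from a 50% saturated solution. After 10 min of compound exposure at ambient temperature, reduced 535 nm fluorescence indicates probe displacement.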
# Potency is read from the fitted curve at half-maximal effect; tags tell the direction and shape of the fitted curve.
# UniProt P02791, sequence (P02791 whole entry, looked up): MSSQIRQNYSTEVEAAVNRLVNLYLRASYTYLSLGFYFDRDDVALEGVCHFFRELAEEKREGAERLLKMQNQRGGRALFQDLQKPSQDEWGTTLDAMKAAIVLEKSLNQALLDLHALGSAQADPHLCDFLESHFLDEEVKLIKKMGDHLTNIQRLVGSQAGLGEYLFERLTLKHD
row,Structure (SMILES),Potency
1,O=C(C1COc2ccccc2O1)N1CCc2ccccc21 (stereo not drawn),"inconclusive: 17.8 µM [inhibitor, partial curve]"
2,Cc1ccc(CC(=O)Nc2ccc(S(=O)(=O)N3CCOCC3)cc2)cc1,"inconclusive: 44.7 µM [inhibitor, single point]"
3,COc1ccccc1OCC(=O)Nc1cccc(-c2nnc(-c3ccco3)o2)c1,inactive
4,COc1ccccc1CC(=O)NC1CCCc2ccccc21 (stereo not drawn),"inconclusive: 31.6 µM [inhibitor, single point]"
5,CC(=O)Nc1cc[n+](C(C)C(=O)c2ccccc2)cc1 (stereo not drawn),inactive
6,Nc1cc(-c2ccc(Br)cc2)nn1Cc1ccccc1,"inconclusive: 20 µM [inhibitor, partial curve]"
7,O=c1c(Cl)c2oc3ccccc3nc-2c2ccccc12,inactive
8,CCOc1ccccc1C(=O)NC1CC2CCCC(C1)N2C1CC1 (stereo not drawn),"inconclusive: 35.5 µM [inhibitor, single point]"
9,O=S(=O)(N/N=C1\CC(c2ccccc2)Oc2ccccc21)c1ccccc1 (stereo not drawn),"inconclusive: 11.2 µM [inhibitor, partial curve]"
10,O=C(O)COc1ccc(/C=N/NC(=O)COc2nsnc2N2CCOCC2)cc1,inactive
11,O=C(OCC1OC(n2cnc3c(N(C(=O)c4ccccc4)C(=O)c4ccccc4)ncnc32)C(O)C1F)c1ccccc1 (stereo not drawn),"inconclusive: 6.31 µM [inhibitor, partial curve, poor fit]"
12,c1ccc(CSc2ccc(-c3ccco3)nn2)cc1,inactive
13,CCOC(=O)CC(NC(=O)Cn1nnc(-c2ccc(C(F)(F)F)cc2)n1)c1ccc(C)cc1 (stereo not drawn),inactive
14,O=C(Cc1ncc(C(F)(F)F)cc1Cl)Nc1cccc(Br)c1,"inconclusive: 25.1 µM [inhibitor, partial curve]"
15,O=C(CC(=O)N/N=C\c1c(Cl)cccc1Cl)NCc1ccccc1,"inconclusive: 56.2 µM [inhibitor, single point]"
16,COc1cc(/C=N/NC(=O)c2ccc(NC(=O)C3CCCCC3)cc2)ccc1O,"inconclusive: 14.1 µM [inhibitor, partial curve]"
17,CC(/C=C/c1ccccc1)=N\NC(=O)CNC(=O)c1ccccc1Cl,"inconclusive: 35.5 µM [inhibitor, partial curve]"
18,COc1cccc(/C=N/NC(=O)c2[nH]nc3c2CCc2ccccc2-3)c1,inactive
19,Cc1cc(C(=O)CN2C(=O)C(=O)N(C3CCCC3)C2=O)c(C)n1-c1ccc(F)cc1,"inconclusive: 3.16 µM [inhibitor, full curve]"
20,C/C(=N\NC(=O)COc1ccc(C)cc1C(C)C)c1ccc(-n2ccnc2)cc1,"inconclusive: 28.2 µM [inhibitor, partial curve]"
21,N/C(=N\OC(=O)c1ccc(Br)cc1)c1ccccc1,inactive
22,Cc1ccc(Cl)cc1N(C)C(=O)c1cnc(N2CCOCC2)c2ccccc12,inactive

row,Structure (SMILES),Potency
1,CCC(C(=O)Nc1ccc2c(c1)OCCO2)c1ccccc1 (stereo not drawn),"inconclusive: 39.8 µM [inhibitor, partial curve]"
2,O=C1CSC(c2cccc(F)c2)N1c1c(F)cccc1F (stereo not drawn),"inconclusive: 56.2 µM [inhibitor, single point]"
3,CC(C)N(Cc1nc(-c2ccc(Cl)cc2)no1)C(=O)CCCN1C(=O)c2ccccc2C1=O,"inconclusive: 31.6 µM [inhibitor, partial curve]"
4,N#CC(Nc1ccccc1)c1ccccc1OCc1ccccc1 (stereo not drawn),"inconclusive: 31.6 µM [inhibitor, partial curve]"
5,Nc1ccc2oc(C3CCCCC3)nc2c1,"inconclusive: 39.8 µM [inhibitor, single point]"
6,CCc1cc(-c2onc(C)c2-c2cscn2)c(O)cc1OC,"inconclusive: 25.1 µM [inhibitor, partial curve]"
7,CC(C)Cc1nc(C(N)=O)c2[nH]c(=O)n(-c3ccc(F)cc3)c2n1,inactive
8,O=C(NC1CCCCC1)c1cccc(OCc2ccccc2)c1,"inconclusive: 10 µM [inhibitor, partial curve]"
9,COc1cccc(C(O)c2cnc(C(C)C)n2C)c1OC (stereo not drawn),"inconclusive: 22.4 µM [inhibitor, partial curve]"
10,CN(c1ccccc1)S(=O)(=O)c1ccc(C(=O)N2CCCC(C(F)(F)F)C2)cc1 (stereo not drawn),"inconclusive: 28.2 µM [inhibitor, single point]"
11,Cc1ccccc1N1CCN(CCCN2C(=O)CC(=C(c3ccccc3)c3ccccc3)C2=O)CC1,"inconclusive: 31.6 µM [inhibitor, partial curve]"
12,Cc1ccc2nc(N3C(=O)C(O)=C(C(=O)c4cc5ccccc5o4)C3c3cccs3)sc2c1 (stereo not drawn),"inconclusive: 22.4 µM [inhibitor, partial curve]"
13,N=c1c(C(=O)NCc2ccc3c(c2)OCO3)cc2c(=O)n3ccccc3nc2n1Cc1cccnc1,"inconclusive: 20 µM [inhibitor, partial curve]"
14,Cc1ccc(S(=O)(=O)Nc2ccc(NC(=O)CN3CCCCC3)c(Cl)c2)cc1,"inconclusive: 15.8 µM [inhibitor, partial curve]"
15,COC(=O)c1cc2ccsc2n1CC(=O)N1CCCc2ccccc21,"inconclusive: 10 µM [inhibitor, partial curve, poor fit]"
16,CCOC(=O)Cc1csc(NC(=O)c2ccc(S(=O)(=O)N3CCCCC3)cc2)n1,"inconclusive: 25.1 µM [inhibitor, partial curve]"
17,Nc1nnc(COc2cccc(C(F)(F)F)c2)s1,"inconclusive: 11.2 µM [inhibitor, full curve]"
18,CCOc1ccc(NC(=O)N(C2CCCCC2)C(C)c2cccnc2)cc1 (stereo not drawn),inactive
19,Cc1ccc(C)c(N(C)C(=O)C2CCN(c3ncnc4c3nc3n4CCCCC3)CC2)c1,"inconclusive: 5.62 µM [inhibitor, full curve, poor fit]"
20,COc1ccc(Oc2ccc(/C=N/NC(=O)c3cccnc3)cc2[N+](=O)[O-])cc1,"inconclusive: 35.5 µM [inhibitor, partial curve]"
21,CC1(C)C2CCC1(C)C(OC(=O)CNc1ccccc1)C2 (stereo not drawn),"inconclusive: 4.47 µM [inhibitor, partial curve]"
